Data taken from the RNAGym collection of RNA variant scans (doi:10.7554/elife.90254).
The source gives no read counts; variants with many changes may rest on few reads.

B1: LINE1-mini (parent)
chain: GGCAGAGCUCAACACAGCGUGGCAAAGUGGCUGUGGCUAGACUGCC

Variants of: B1
Experiment: self-cleavage, relative activity (ratio to wild type); higher = more cleavage; in vitro, sequencing; the parent is a self-cleaving ribozyme

Variant	self-cleavage
GGCAGAGCUAAACACAGCGUGGCAAAGUGGCUGUGGUUCGUCUGCC [C10A C37U A39C A41U]	0.06
GGCAGAGCUAAACACAGCGUGGCAAAGUGGAUGUGGCUAGCCUGCC [C10A C31A A41C]	0.02
GGCAGAGCUAAACACAUCGUGGCAACGUGGCUGUGGUUAGACUGCC [C10A G17U A26C C37U]	0
GGCAGAGCUAAACACAGCGUGGCAAAGUGGUUGUGGCUUGAAUGCC [C10A C31U A39U C42A]	0.02
GGCAGAGCUAAACACACCGUGGCAAAGUGGCUGUUUCUAGACUGCC [C10A G17C G35U G36U]	0.03
GGCAGAGCUAAACACAGUGUUGCAAAGUGGCUGUGGCUAGUCUGUU [C10A C18U G21U A41U C45U C46U]	0.01
GGCAGAGCUAAACACAGCGUGGCAAAGUGGCUGUGGAUAGACUCCC [C10A C37A G44C]	0.02
GGCAGAGCUAAACACAGCGUGGCAAAGUGGGUGUGGCAAGACUACC [C10A C31G U38A G44A]	0.02
GGCAGAGCUAAACACACCCUGGCAAAGUGGCUGUGGCUAGACUGCC [C10A G17C G19C]	0.08
GGCAGAGCUAAACACAGCGUGGUAAAGUGGCUGCGGCUAGACUGCC [C10A C23U U34C]	0.03
GGCAGAGCUAAACACAGCGUGGCAAAGUGGCUGUGGGUAUACAGCC [C10A C37G G40U U43A]	0.01
GGCAGAGCUAAACACAGCGUGGCAAAGUGGCUGUGGUUCGACUGCC [C10A C37U A39C]	0.05
GGCAGAGCUAAACACAGCGUGGGAAAGUCGCUGUGGCUAGACUGCC [C10A C23G G29C]	0.03
GGCAGAGCUAAACACAGCGUGGUAAAGUGGCUGUGGCUAGAUUGCC [C10A C23U C42U]	0.03
GGCAGAGCUAAACACACCGUGGCACAGAGGCGGUCAGUAGAUUGCC [C10A G17C A25C U28A U32G G35C G36A C37G C42U]	0
GGCAGAGCUAAACACAGCGUGGCAAAGUGGCUGUGGAUAGGCUGCC [C10A C37A A41G]	0.04
GGCAGAGCUAAACACACCCUGGCAAAGUGGCGGUAGCUAGACUGCC [C10A G17C G19C U32G G35A]	0.01
GGCAGAGCUAAACACAGUGUGUCAAAGUGGCUGUGGCUAGACUGCC [C10A C18U G22U]	0.05
GGCAGAGCUAAACACAGUGUGACAAAGUGGCUGUGGCUAGACUGCC [C10A C18U G22A]	0.08

Variant	self-cleavage
GGCAGAGCUAAACACAGUGUGGUAAAGUGGCUGUGGCCAGACUGCC [C10A C18U C23U U38C]	0.03
GGCAGAGCUAAACACAGCGUGGUAAAGUGGAUCUGGCUAGAAUGCC [C10A C23U C31A G33C C42A]	0.02
GGCAGAGCUAAACACAGCGUGGGAAAGUGACUGUGGCUGGACUGCC [C10A C23G G30A A39G]	0.01
GGCAGAGCUAAACACAGCGUGGAAAAGUGGCUGUGGGUAGACUGCU [C10A C23A C37G C46U]	0.02
GGCAGAGCUAAACACAGUGUGGCAAAUUGGUUGUAGUUAGACUGCC [C10A C18U G27U C31U G35A C37U]	0.01
GGCAGAGCUAAACACAGUGUGGCACAGUGGCUGUGGCUAGACUUCC [C10A C18U A25C G44U]	0.03
GGCAGAGCUAAACACAACGUGACAAAGUGGCUGUGUCUAGAGUGCC [C10A G17A G22A G36U C42G]	0.01
GGCAGAGCUAAACACAGUGUGGCUAAGUGGCUGUGGGCAGACUGCC [C10A C18U A24U C37G U38C]	0
GGCAGAGCUAAACACAGCGUGGGAAAGUGGCAGUGGCUAGACUGCC [C10A C23G U32A]	0.01
GGCAGAGCUAAACACAGCGUGGCAAAGUGGUUGUGGCUAGACUGUC [C10A C31U C45U]	0.03
GGCAGAGCUAAACACAGCGUGGCAAAGUGGAUGUGGCUAGAAUGCC [C10A C31A C42A]	0.02
GGCAGAGCUAAACACAGCGUGGUAAAGUGGCUGUGCCUAGACUGCC [C10A C23U G36C]	0.01
GGCAGAGCUAAACACAGCGUGGCAAAGUGGGUGUGGCUAAUCCUCC [C10A C31G G40A A41U U43C G44U]	0
GGCAGAGCUAAACACAGUGUGGUAAUGUGGUUGUGACUAGACUGCC [C10A C18U C23U A26U C31U G36A]	0.01
GGCAGAGCUAAACACACGGUGGCAAAGCGGCUGUGGCUAGACUGCC [C10A G17C C18G U28C]	0.02
GGCAGAGCUAAACACAGUGUGGCAAAGUGACUGUGGCUAGAAUGCC [C10A C18U G30A C42A]	0
GGCAGAGCUAAACACAGCGUGGAAAAGUGGCUGAGGCUAGACUGCC [C10A C23A U34A]	0
GGCAGAGCUAAACACAGCGUGGCAAAGUGGCUGUGGCUAGACUGGU [C10A C45G C46U]	0.02
GGCAGAGCUAAACACAGGGUGGCAAAGUGGCGGUGGCUAGACUGCU [C10A C18G U32G C46U]	0.16

Variant	self-cleavage
GGCAGAGCUAAACACAGCGUGGCAAAGUGGUUGUGGCUUAACUGCC [C10A C31U A39U G40A]	0.06
GGCAGAGCUAAACACAACGUGUCAAAGUGGCUGUGCCUAGACUGCC [C10A G17A G22U G36C]	0.04
GGCAGAGCUAAACACACAAUGGCAGAGUGGCUGUGGCUAGACUGCC [C10A G17C C18A G19A A25G]	0.04
GGCAGAGCUAAACACAUCGUGGCAAAGUGGCUGUGGCUAGACUGCG [C10A G17U C46G]	0.02
GGCAGAGCUAAACACAGCGUGGCAAAGUGGCUGUGGUUAGACUCAC [C10A C37U G44C C45A]	0.04
GGCAGAGCUAAACACAGGGCGCCAAAGAGGCUGUGGCGAGACUGCC [C10A C18G U20C G22C U28A U38G]	0.05
GGCAGAGCUAAACACAGUGUGGCAAAGUGGCGGUGGCUAGAUUGCC [C10A C18U U32G C42U]	0.01
GGCAGAGCUAAACACAGCGUGGUAAAGUUGCUGUGGCUGGACUGCC [C10A C23U G29U A39G]	0.04
GGCAGAGCUAAACACAGGGUGGCAAAGGGGCUUUGGUUAGACUCCC [C10A C18G U28G G33U C37U G44C]	0.01
GGCAGAGCUAAACACAGCGUGGCAAAGUGGUUUUGGCUCGACUGCC [C10A C31U G33U A39C]	0.01
GGCAGAGCUAAACACAACGUGACAAAGUGGCUGUGGCUAGGCUGCC [C10A G17A G22A A41G]	0.04
GGCAGAGCUAAACACAGCGUGGCAAAGUGGUUGUGGCUAGUAUGCC [C10A C31U A41U C42A]	0
GGCAGAGCUAAACACAGCGUGGCAAAGUGGCUGUGGUCAGUCUGCC [C10A C37U U38C A41U]	0
GGCAGAGCUAAACACAGCGUGGCAAAGUGGUUGAGGCUAGACUUCU [C10A C31U U34A G44U C46U]	0
GGCAGAGCUAAACACAGCGUGGCAAAGUGGUUGUGGCUAGAAUGAC [C10A C31U C42A C45A]	0.02
GGCAGAGCUAAACACAGUAUGGUAUAGUGGCUGUGGAUCGACUUCU [C10A C18U G19A C23U A25U C37A A39C G44U C46U]	0
GGCAGAGCUAAACACAGCGUGGAAAAGUGGCGGUGGCUAGACUGCC [C10A C23A U32G]	0.04
GGCAGAGCUAAACACAGUGUGGCAAAGCGGCUGUGGCUAUACUGCC [C10A C18U U28C G40U]	0.01
